Assay results: the supplement of paper PMC10126150
Sequences with one replicate were seen in a single cluster, so their values are uncertain.

Tested on: ATP
Experiment: switch fluorescence ratio, 500 uM ATP over buffer (Cy3 cluster intensity, sum of 5 cycles each) (fold (ratio)); higher = stronger signal-on switching upon ATP binding; sequences stand for … in TCGTCGGCAGCGTCAGATGTGTATAAGAGACAGTTTTTTTTTTTTTTTTTTTTTTTTT…TC
Settings: aptamer strand: ATP DNA aptamer (quencher-CACCTGGGGGAGTATTGCGGAGGAAGG + anchor), 100 nM annealed; ATP concentration: 500 uM; one replicate
In short: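 The quencher-labelled ATP aptamer, at 100 nM, was annealed to Cy3-labelled switching-strand clusters on a modified Illumina MiSeq flow-cell. The clusters were imaged in selection buffer, then after 15 min with 500 uM ATP at 22 °C, and this buffer/ATP cycle ran five times with NaOH stripping and re-annealing between runs. Per-cluster fluorescence ratios, summed target-cycle over summed buffer-cycle Cy3 intensity, were averaged per switch-domain sequence. Clusters outside 100-1000 RFU were excluded.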
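Further: ATP exposure 15 min at 22 °C before imaging.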

Sequence | switch fluorescence ratio
GCTGAAAGTT | 1.05
TGGGGCACGC | 0.997
AAGCAGGGTC | 1.03
ACACAGTTCC | 1.08
CGCATTTGTT | 1.07
CTGTTAGGTG | 1.14
AGATCGCCAT | 1.05
TCACGATTAA | 0.984
AAACGTCCAG | 1.01
TTGTGCGATG | 1.09
CGCCTAAGGC | 1.05
AGTAGATCGG | 0.991
TATCGAGGCA | 1.04
TATGATTCTA | 1.02
AACGCCTATA | 1.05
GCCGAGGGAT | 1.02
GTTGGTTATA | 0.986
ACTGAGCTGG | 1
CCCGGTTTCT | 0.993
TCTGTTTACA | 0.964
TGTTCTACGG | 1.01
AAATTTGGCG | 0.979
TAAGCAATTT | 1.07
AGTCGTATT | 0.955
TTCTAAGGCG | 1.02
GTACGGGTAG | 1.05

Sequence | switch fluorescence ratio
CTGTTACTG | 0.971
AGATGGTTAA | 1.01
TTAGTGTATG | 1.01
GGAAAGGATG | 1.29
ACCCTAGCCT | 1.13
AAAGACGCGA | 1.17
AAGAAAATT | 0.977
GGGTATTAA | 0.982
TTATTATCGC | 0.998
CACATGCACT | 1.13
TTACGTGTAT | 1.02
GTGATCGTCT | 1
TCATATACCG | 0.959
CTCTGTTACC | 1.1
TTCTGCAGG | 1.11
GGGAGCCTAG | 1.03
GAGGAACGGT | 1.02
CACCCGGGAG | 0.944
AATGAGCCTT | 1.04
AACTTAATCT | 0.964
GACCGGTGTT | 0.942
GCTGATACCG | 1.17
CCGGGAAGAG | 1.07
AGCCGAGTAC | 1.14
CTATAATGCT | 0.994
GCGCCCGTGT | 1.02

Sequence | switch fluorescence ratio
TACAAGTCCT | 0.976
GCAAGCGATA | 1.53
AGGGCGACCC | 1.03
AGTGCCA | 0.966
TCCATTTCCC | 0.979
TGTTCCGAGG | 1.13
ACTGGAGACT | 1.01
GGATCGGGTG | 1.02
GGTTTCATCG | 0.978
ATAGTCGTGC | 1.03
GCAGCCGTGG | 1.01
AATAATTATT | 1.01
AACTCGTACA | 1.1
GCCTGGTCAC | 1.03
GGTTACCCGT | 0.947
GTTTTCCTAG | 1.03
ACTGTATA | 1.23
TCAGTACGGA | 1.03
TGGCTTCTTT | 0.994
GATGGGAAGC | 0.972
GTCGACACGT | 1
CTCAAGCTAG | 1.21
CTGAGCAGAT | 1.67
ACAATCTTTC | 1.07
GGAGTGGGCA | 1.04
TCTGGCATTT | 1.08

Sequence | switch fluorescence ratio
ACACTTTGCG | 1.05
GAGTAGCTGT | 1
TCACACCTTA | 1.09
GCGGTATCTA | 1
ATGGAGCGCA | 1.06
GGTCAATCGG | 0.972
GATGACCTT | 1.27
TCATACGCGC | 2.08
CGTGCAGCGT | 0.989
GCCGTCAAGA | 1.03
TATAAAGATG | 1.01
TTATATATA | 0.952
CTGTGAGGGA | 0.998
CGAAAGTGTA | 1
TGGTTTCCAC | 1.01
GAATGGGCGG | 0.99
ATCTGACCGT | 1.02
ATATACGGTT | 1
GTAGCTACTT | 0.987
GAAGTCGTTG | 0.967
TGTGATACAC | 1.05
TATAGTAGCC | 1
AAGGAAAGTG | 0.995
GGGTGTTAAG | 0.997
AGTCACCCGG | 2.93
TATTAAACCC | 1.08

Sequence | switch fluorescence ratio
GATTACAGT | 1.02
TCTAAATTGA | 0.944
AAAAGTTAC | 1.08
GGGAGGTTTG | 0.945
CGAGGGCACA | 1.1
CATGAGCAGT | 1.27
CATGCAATCG | 1.3
TCAGGCAATT | 1.29
GCGAGGTTCG | 0.974
TAAACAGGTT | 0.964
GCCCCAGTTT | 1.08
GAAAGCACGG | 1.14
TGAAATTTCC | 2.6
GTCGGCGGGC | 1.01
GGTCGCAAAA | 0.989
AGGTTGGTTT | 0.996
CTGAGTGTGT | 0.989
TGAGTAGAGC | 1.02
GCGTCCACTG | 0.962
GTGTGGACAC | 0.966
TACAGACGGC | 1.41
AGACCACAGG | 1.09
GGAAATTTCG | 0.95
AGGTCAAATT | 0.973
TTCGGATGCT | 0.983
TTTTTCTTAG | 0.985

Sequence | switch fluorescence ratio
GCAGGGCGGT | 1
GTGGTCTTG | 0.99
TTAGAACCAA | 1.01
CATGCGTCCG | 1.03
ACCATAATGT | 1.05
TTGTAGTCAA | 1.19
TAATGTCTCA | 0.974
CCGGAGGTTG | 1.01
AATGATGGGC | 0.99
GAAGGCGCTG | 0.982
ATACCACTGG | 1.08
TTGAACATGC | 1.17
ACTAATTCGA | 0.988
GTTCTGACGA | 1.14
TGCATGAGGT | 0.996
CAACGAGGGA | 1.01
GTTCCAACAA | 1.03
AACAGGGTGA | 1.03
CGATGACACT | 0.996
GGTAAGGGCG | 1.04
AATTAAAAT | 0.998
TTTACCAATG | 0.978
GGGATTAAAT | 0.997
AGTTAGCTGA | 1.02
AGGATGATTC | 1.02
GCGATATTGA | 0.975

Sequence | switch fluorescence ratio
GATTAACCAA | 1
CTTATCAAGT | 0.975
TTGAACCCGT | 0.978
TTGTGATATT | 1.01
GGGATCGGCC | 1.03
CGAGTTCGCT | 0.982
AACTCGCCAC | 1.2
CGTATTATCC | 1.08
TTCTAACGGT | 0.985
TTTCGTGGAT | 0.992
GATGGGATCT | 0.966
AGTCCCGGTG | 1.81
GCAGGATTGT | 0.994
GGCGGATACC | 1.05
TGGTGAAGT | 1.05
AGGGGTTAC | 1.04
CCACTATACT | 2.4
GATCGGGCGT | 0.966
AATTGGACTT | 1.01
TGCAACGTGG | 0.994
TATAGGCTC | 0.989
TTAACGGATG | 1.01
GGATTGTGTA | 1
AACTAGCACC | 1.07
TAAAATACTG | 1.01
AGCTGGAAGG | 1.01

Sequence | switch fluorescence ratio
TAATCAGAA | 0.991
TTACCCGAGT | 1.03
GTGTTAGTTG | 1.01
TTAGTTAGCC | 1.04
TTTACGAGGA | 1.02
CAAAGTATCC | 0.964
AGTAGTGTAG | 1.05
GGCAATACCG | 2.02
GCGTGAATGT | 1.07
CTTTTGTTTT | 1.17
AGTTAGTGCT | 1
CGTAGTACTT | 1.13
CTCCTCTGTT | 1.47
TCGGGTACAG | 1.03
GACCGTTGTC | 0.984
TTAGTTCGC | 1
CTCTATATCC | 1.08
GGCTGCAGGA | 0.994
TCATAATCCT | 1.04
